About 1,700 (3.3%) of roughly 52,000 compounds were called active. Rule as the data show it: active = survival mostly below about 52% (no sharp cut-off); inactive = mostly above about 56%. The list shows a part of the results.

The test system of the assay is Wild type. Kind of assay: S. aureus survival, RN4220 and DeltatarO strains – OD600, teichoic acid synthesis inhibitors, primary screen (AID 463173). Particulars: S. aureus RN4220 wild type/DeltatarO growth, OD600, 18 h, stronger effect = lower value, screened at 18.75 µg/mL (by protocol).
Turning to `CC(C)(C)OC(=O)N1CCC(c2c(C(=O)NCc3cccc(Cl)c3)cnn2-c2ccc(F)cc2)CC1`, the survival was inactive: 78%.

For `CCOc1ccc(CN2CCc3nc(N4CCN(c5ccccc5OC)CC4)ncc3C2)cc1OC`, the survival was inactive: 111%.

In the case of `O=C(Nc1cc(-c2nc3ccccc3o2)ccc1Cl)c1sc2c([N+](=O)[O-])cccc2c1Cl`, the survival is inactive: 96%.

With `COc1cc(/C=C(\C#N)C(=O)NCC2CCCO2)ccc1O` (stereo not given), the survival was inactive: 94%.

Take `CCc1ccccc1NC(=O)CSc1nc(-c2cccc(Cl)c2)nc2c1Cc1c(CO)cnc(C)c1O2`: the survival was inactive: 83%.

Take `CCN1CCCC1CNC(=O)Nc1c[nH]c2ccc(OC)cc2c1=O` (stereo not given): the survival was inactive: 107%.

For the compound `CC1CCN(C(=O)Cn2c(=O)n(CC3CCC(C(=O)NC(C)C)CC3)c(=O)c3sccc32)CC1` (stereo not given), the survival was inactive: 78%.

As to `CCOC(=O)c1ccc(NC(=O)CC2C(=O)N(c3ccc(F)cc3)C(=O)N2Cc2cccnc2)cc1` (stereo not given), the survival was inactive: 69%.

Regarding `O=C(NCCCN1CCCCC1)c1sc2ncccc2c1-n1cccc1`, the survival is inactive: 90%.

For `Cc1ccccc1C(=O)Nc1nnc(S(=O)(=O)N(C)Cc2ccccc2)s1`, the survival was inactive: 89%.

As to `COc1ccc(-n2c(-c3ccc(C)cc3)cc3c2CC(C)(C)CC3=O)cc1Cl`, the survival was inactive: 85%.

For the compound `Cc1[nH]c(=O)[nH]c(=O)c1N`, the survival is inactive: 100%.

`COc1ccc(-c2nc(SCC(=O)NC3CCCC3)c(-c3ccc(F)cc3)[nH]2)cc1`: the survival was inactive: 76%.

Consider `CC(C)c1ccc(Cn2c(COc3ccccc3)nc3ccccc32)cc1`, for which the survival was active: -1%.

For `CCn1nc(C)c2c(-c3ccccc3)cc(=O)n(C(C)C(=O)NCCC(C)C)c21` (stereo not given), the survival is inactive: 71%.

On to `COc1ccc(S(=O)(=O)NCC(c2ccco2)S(=O)(=O)c2ccc(C)cc2)cc1F` (stereo not given), for which the survival was inactive: 78%.

Regarding `NC(=Nc1ccccc1)SC1CC(=O)N(c2ccccc2)C1=O` (stereo not given), the survival is inactive: 113%.

As to `COc1ccc(CNS(=O)(=O)c2ccc(N3CCCCS3(=O)=O)cc2)cc1`, the survival was inactive: 83%.

Regarding `Cc1ccc(C(=O)Nc2ccc3c(c2)n(C)c(=O)c(=O)n3C)cc1`, the survival was inactive: 78%.

`CCc1ccc(OC(C)C(=O)N2CCC(c3nc4ccccc4o3)CC2)cc1` (stereo not given): the survival is inactive: 92%.

Consider `Cc1ccc(NC(=O)Cn2nc(C(=O)Nc3ccc(C)cc3)ccc2=O)cc1`, for which the survival is inactive: 64%.

With `CC1CCN(Cc2c(O)ccc3c(=O)c(Oc4ccccc4Cl)c(C(F)(F)F)oc23)CC1`, the survival was inactive: 75%.

With `Cc1cc(C)nc(SCc2noc(-c3ccc(Cl)cc3)n2)n1`, the survival was inactive: 111%.

As to `CC(=O)Nc1ccc(NC(=O)CCc2nc3cccnc3n2Cc2cccs2)cc1`, the survival is inactive: 137%.

In the case of `COc1ccc(NC(=O)CC2C(=O)N(c3cccc(OC)c3)C(=O)N2CCc2cccs2)cc1` (stereo not given), the survival is inactive: 79%.

The record behind these values is PubChem BioAssay AID463173 (ICCB-Longwood Screening Facility, Harvard Medical School, 2010).
